Data published in article PMC4110037.
No constants are given. Whether binding was seen depends on the method and setting. Some entries that bind do so weakly or less than the wild type.

What was measured:
[1] = molecular target: T1, Fen kinase (Solanum pimpinellifolium) (UniProt Q40126); assay: two-hybrid; LexA yeast two-hybrid: Pto or Fen in the bait vector pEG202, AvrPtoB forms in the prey vector pJG4-5, S. cerevisiae EGY48 with reporter plasmid pSH18-34; X-Gal staining on raffinose/galactose plates monitored for 24 to 48 hrs
T1 sequence: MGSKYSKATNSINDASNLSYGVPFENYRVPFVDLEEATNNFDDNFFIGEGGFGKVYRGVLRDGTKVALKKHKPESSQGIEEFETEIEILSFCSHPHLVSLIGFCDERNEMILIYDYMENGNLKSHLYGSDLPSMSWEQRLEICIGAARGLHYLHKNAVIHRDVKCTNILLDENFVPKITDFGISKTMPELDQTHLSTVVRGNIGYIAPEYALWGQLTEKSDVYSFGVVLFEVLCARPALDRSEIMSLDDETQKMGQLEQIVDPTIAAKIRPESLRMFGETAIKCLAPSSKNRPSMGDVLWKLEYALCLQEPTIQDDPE

[2] = molecular target: T2, Pto kinase (Solanum pimpinellifolium) (UniProt Q40234); assay: as above
T2 sequence: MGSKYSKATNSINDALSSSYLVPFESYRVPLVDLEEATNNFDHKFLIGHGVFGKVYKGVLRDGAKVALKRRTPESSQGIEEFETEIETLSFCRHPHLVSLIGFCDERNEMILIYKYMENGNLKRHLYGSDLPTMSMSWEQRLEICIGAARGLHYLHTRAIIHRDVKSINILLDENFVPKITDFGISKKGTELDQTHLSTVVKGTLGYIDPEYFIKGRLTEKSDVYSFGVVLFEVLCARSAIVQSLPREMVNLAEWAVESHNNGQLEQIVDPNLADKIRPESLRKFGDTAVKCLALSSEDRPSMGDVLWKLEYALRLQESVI

Substance	binding [1]	binding [2]
AvrPtoB(F479A/F525A/P533A) (from UniProt Q8RSY1 1-553)	binds	binds
PID:E3-LOF (from UniProt Q8RSY1 121-200; Q8RSY1 388-533)		binds
AvrPtoB_(1–307) (from UniProt Q8RSY1 1-307) (domain or fragment)	no binding	binds
AvrPtoB(F173A/E3-LOF) (from UniProt Q8RSY1 1-553)		binds
AvrPtoB(T450A) (from UniProt Q8RSY1 1-553)		binds
AvrPtoB_(1–387) (from UniProt Q8RSY1 1-387) (domain or fragment)	binds	binds
AvrPtoB_(1–387)(F173A) (from UniProt Q8RSY1 1-387) (domain or fragment)		binds
AvrPtoB_(1–387)(G325A) (from UniProt Q8RSY1 1-387) (domain or fragment)	no binding	binds
AvrPtoB_(1–387)(F173A/G325A) (from UniProt Q8RSY1 1-387) (domain or fragment)		no binding
AvrPtoB(G325A/E3-LOF) (from UniProt Q8RSY1 1-553)	no binding	binds
AvrPtoB_(1–307)(F173A) (from UniProt Q8RSY1 1-307) (domain or fragment)		no binding
AvrPtoB(T450D) (from UniProt Q8RSY1 1-553)	no binding	binds
AvrPtoB(F173A/G325A/E3-LOF) (from UniProt Q8RSY1 1-553)		no binding
AvrPtoB (from UniProt Q8RSY1 1-553)		binds
